Read counts are not given, so values of variants with three or more changes are uncertain.
B1: LINE1-mini (parent)
chain: GGCAGAGCUCAACACAGCGUGGCAAAGUGGCUGUGGCUAGACUGCC

Variants of: B1
Experiment: self-cleavage, relative activity (ratio to wild type); higher = more cleavage; in vitro, sequencing; the parent is a self-cleaving ribozyme

Row | Variant | self-cleavage
1 | GGCAAAGUUCAACAAAGGUUGGCAAAGUGGCUGUGGCUAGACUGCC [G5A C8U C15A C18G G19U] | 0.1
2 | GGCAAAGGUUAACACAGCGUGGCAAGUUGGGUGUGGCUAGACUGCC [G5A C8G C10U A26G G27U C31G] | 0.05
3 | GGCAAAGGUCAACACAGCUUGGCAAAGCGGCUGUGGCUAGACUGCC [G5A C8G G19U U28C] | 0.09
4 | GGCAAAGGUCAACACAUCGUGGCAAAGUGGCGCUGGCUAGACUGCG [G5A C8G G17U U32G G33C C46G] | 0.05
5 | GGCAAAGCUAAACACAGCGUGGCAAAGUGGCUGUGGCGAGACUGCC [G5A C10A U38G] | 0.03
6 | GGCAAAGGUCAGCACAGCGUGGCAAAGUGGCUGUGGCUAGACUGCC [G5A C8G A12G] | 0.07
7 | GGCAAAGAUCAACACAGCGUGGCAAAGUGGCUGGGGCUAGACUGCC [G5A C8A U34G] | 0.45
8 | GGCAAAGCUAAACACAACGUGGCAAAGUGCCUGUCGCUAGACUGCC [G5A C10A G17A G30C G35C] | 0.01
9 | GGCAAAGGUCAAUGCAGCGUGGCAAAGCGGCUGUGCAUAGACUGCC [G5A C8G C13U A14G U28C G36C C37A] | 0.07
10 | GGCAAAGCUGAACACAGCGUGGCAAAGGGUCUGUGGCGAGACUGCC [G5A C10G U28G G30U U38G] | 0.03
11 | GGCAAAGCUUAACACAGAGUGGCAAAGUGGGUGUGGCUAGACUGCC [G5A C10U C18A C31G] | 0.04
12 | GGCAAAGCUGAACACAGCGUCGCAAAGUGGAUGUGGCUAGUCUGCC [G5A C10G G21C C31A A41U] | 0
13 | GGCAAAGCUAAACACAGCGUGGUAAAGUGGCUGUGGCUAGACUGCC [G5A C10A C23U] | 0.02
14 | GGCAAAGAUCAACACAGCGUGGUAAAGUGGCUGGGGCUAGACUGCC [G5A C8A C23U U34G] | 0.4
15 | GGCAAAGAUCAACACAGCGUGGCAAAUUGCCUGUGGCUAGACUGCC [G5A C8A G27U G30C] | 0.2
16 | GGCAAAGCUGAACUGAGCGUGGCAAAGUGGCUGUGGCUAGACUGCC [G5A C10G A14U C15G] | 0.04
17 | GGCAAAGCUAAACACAGCGUGGAAAAGGGGCUGUGGCUAGACUGCC [G5A C10A C23A U28G] | 0.01
18 | GGCAAAGCUAAACACACAGUGGCAAUGUGGCUGUGGCUAGACUGCC [G5A C10A G17C C18A A26U] | 0.03
19 | GGCAAAGCUAAACACAGCUUGGCAAAGUGUCUGUGGCUAGACUGCC [G5A C10A G19U G30U] | 0.03

Row | Variant | self-cleavage
20 | GGCAAAGGUCAACACAGUGUGGCAAAGUGGCUGUGGCUUGACUGCC [G5A C8G C18U A39U] | 0
21 | GGCAAAGCUGAACACAGUCUGGCGAAGUGUCUGUGGCUGUACUGCC [G5A C10G C18U G19C A24G G30U A39G G40U] | 0.01
22 | GGCAAAGCUGAACACAGCGUGGCAAAGUGGCUGGGGCUAGACUGCC [G5A C10G U34G] | 0.02
23 | GGCAAAGCUAAACACAGCGUGGCAAAGUGGCUGUGGCUAGACUACC [G5A C10A G44A] | 0.07
24 | GGCAAAGCUAAACACAGAGUGGCAAAGUGGCUGCGGCUUGACUGCU [G5A C10A C18A U34C A39U C46U] | 0.02
25 | GGCAAAGUUCAACAGAGCGUGUCAAAGUGGCUUUGACUAGACUCCC [G5A C8U C15G G22U G33U G36A G44C] | 0.22
26 | GGCAAAGGUCAACACAGCGUGGCAAAGUUACUGUGGCUAGACUGCC [G5A C8G G29U G30A] | 0.07
27 | GGCAAAGUUCAACACGGCGUGGCAAAGUGGCUGUGGCUAGACUGCC [G5A C8U A16G] | 0.29
28 | GGCAAAGCUUAACACAGCGUGGCAAAUUGGCUGUGGCUAGACUGCC [G5A C10U G27U] | 0.05
29 | GGCAAAGCUGAAUAUAGCGUGGCGAAGUGGCUGUCACUAGACUGCC [G5A C10G C13U C15U A24G G35C G36A] | 0.01
30 | GGCAAAGAUCAACACAGAGUGGCAAAUUGGCUGUGGCUAGACUGCC [G5A C8A C18A G27U] | 0.18
31 | GGCAAAGCUGAACACAGCGUGGCAAAGUGCCUGUGUCAAGACUGCC [G5A C10G G30C G36U U38A] | 0.01
32 | GGCAAAGCUAAACACAGCGUGGCAAAGUAGCUGUGGGUAGACUGCC [G5A C10A G29A C37G] | 0.06
33 | GGCAAAGGUCAACGCAUCGUGGCAAAGUGGCUGUGGCUAGACUGCC [G5A C8G A14G G17U] | 0.06
34 | GGCAAAGUUCAACACAGCGUAGCAAAGUGGCUGUGGCUAGACUGCC [G5A C8U G21A] | 0.09
35 | GGCAAAGCUAAACACAGGGUGGCAAAGUGGCUGUGGCUAGACUGCC [G5A C10A C18G] | 0.06
36 | GGCAAAGCUGAACACACCGUGCCAAAGUGCCUGUGGCUAGACUGCC [G5A C10G G17C G22C G30C] | 0.01
37 | GGCAAAGCUAAACACAGCGUGGCAAAGUGGAUGUGGCUAGACUGCA [G5A C10A C31A C46A] | 0.02
38 | GGCAAAGGUCAACACCGCGUGGCAAAGUGGCUGUGGCUAGACUGCA [G5A C8G A16C C46A] | 0.03

Row | Variant | self-cleavage
39 | GGCAAAGCUUAACACAGCGUGGACAAGUGGCUGUGGCAAGACUGCC [G5A C10U C23A A24C U38A] | 0.01
40 | GGCAAAGCUAAACAAAGCGAGGCAAAGUGGCUGUGGCUAGACUGCC [G5A C10A C15A U20A] | 0.08
41 | GGCAAAGCUGAACACAGCGUGCCAAAGUGGCUUUGGCUAGACUGCC [G5A C10G G22C G33U] | 0.03
42 | GGCAAAGCUGAACACAGCCUGGCAAAGUGGCUGUGGCUAGGUUGCC [G5A C10G G19C A41G C42U] | 0.01
43 | GGCAAAGCUUAACCCAGCGUGGCAACGUGGCUGCGGCUAGACUGCC [G5A C10U A14C A26C U34C] | 0.03
44 | GGCAAAGCUUAACAAAGCGUGGCAAAGUGGCUGUGGCUAGACUGCC [G5A C10U C15A] | 0
45 | GGCAAAGAUCAACACAGCGUAGCAAAGUGGCUGUGGCAAGCCUGCC [G5A C8A G21A U38A A41C] | 0.17
46 | GGCAAAGCUUAACACAGCGUGGCAAAGUGACUGUGGCUAGACUGCC [G5A C10U G30A] | 0.07
47 | GGCAAAGAUCAACACACCGUCGCAAAGUGGCUGUGGCUAGUCUGCC [G5A C8A G17C G21C A41U] | 0.02
48 | GGCAAAGUUCAACACAGCCUGGCAAUGUGGCUGUGGCUAGACUGCC [G5A C8U G19C A26U] | 0.09
49 | GGCAAAGAUCAACACAGCGGGGCAAAGUGGGUGUGGCUGGACUGCC [G5A C8A U20G C31G A39G] | 0.04
50 | GGCAAAGCUAAACACAGCGUGGCAACGUUGUUGUGGCUAGACUGCC [G5A C10A A26C G29U C31U] | 0.03
51 | GGCAAAGCUAAACACAGCGUGGCAUAGUGGCUAUGGCUAGACUGCC [G5A C10A A25U G33A] | 0.04
52 | GGCAAAGAUCAACACAGCGUGGCAAAGUCGCUGUGGCUAGACUGCC [G5A C8A G29C] | 0.37
53 | GGCAAAGCUAGACACAGCGUGGCAAUGUGGCUGUGGCUAUACUGCC [G5A C10A A11G A26U G40U] | 0.02
54 | GGCAAAGCUGGACACAGCGUGGCAAGGUAGCUGUGGAGAGACUGCC [G5A C10G A11G A26G G29A C37A U38G] | 0.01
55 | GGCAAAGCUGAACACAGCGUCGCAAAGUGGCUGUGGCUAUACUGCC [G5A C10G G21C G40U] | 0.05
56 | GGCAAAGUUUAACACAGGGUGGCAAAGUGGCUGUGGCUAGACUGUC [G5A C8U C10U C18G C45U] | 0.04
